In patent US20110014656A1 (ZymoGenetics, published 2011):

Legend:
[1] = target: T1, human IL-17F (human, UniProt Q96PD4 31-163); assay: cell-based competition binding, FACS
T1 construct: also called hIL-17F; hIL17F
T1 sequence: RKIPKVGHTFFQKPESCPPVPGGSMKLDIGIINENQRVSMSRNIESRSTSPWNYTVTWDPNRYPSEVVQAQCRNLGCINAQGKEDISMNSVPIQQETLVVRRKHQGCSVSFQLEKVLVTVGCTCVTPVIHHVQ
Procedure: (§1) The biotinylation of the ligand allows for FACS detection using a secondary Streptavidin conjugated fluorophore. A reduction in cell bound ligand over a titration of the soluble receptor is recorded as a reduction in the mean fluorescence of the cells. Biotinylated ligands are individually pre-mixed at 1 ug/ml with titrating amounts of soluble receptor in staining media (HBSS+1% BSA+0.1% NaAzide+10 mM HEPES) in 100 ul volumes and incubated at RT for 15 minutes. A BHK cell line stably transfected with full length IL17RCx4 is prepared for ligand staining by resuspension with Versene (Invitrogen cat. 15040-066), equilibrating to 2×10e5 cells/100 ul, pelleting, and resuspension in the ligand/soluble receptor pre-mix. Stained cells are incubated at 4° for 30 minutes, washed 1× in staining media, and stained with Streptavidin-PE (BD Pharmingen cat. 554061) at a 1:100 ratio. Cells are incubated at 4° in the dark for 30 minutes, washed 2× in staining media, and re-suspended in a 1:1 ratio of staining media and Cytofix (BD Bioscience 554655). The BD LSRII Flow Cytometer or similar instrument is used for data collection and analysis. FIG. 5 depicts a standard graph. The graph was generated using the Prizm software program. The Y values represent the MFI normalized to maximum and minimum (100% and 0%) based on ligand only and no ligand/no soluble receptor control wells, and thus the percent binding of the ligand to the cells. The software calculates the IC50 for each curve.

[2] = target: T2, human IL-17A (human, UniProt Q16552 24-155); assay: cell-based competition binding, FACS; cell-based competition binding on IL-17RC transfected BHK cells; weakest construct
T2 construct: also called hIL-17A; hIL17A
T2 sequence: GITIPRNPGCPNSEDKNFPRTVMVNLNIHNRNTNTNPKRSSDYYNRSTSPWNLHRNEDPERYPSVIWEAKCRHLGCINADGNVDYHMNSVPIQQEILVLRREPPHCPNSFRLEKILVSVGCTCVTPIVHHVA
Procedure: as §1, with “The Y values represent the MFI normalized to maximum and minimum (100% and 0%) based on ligand only and no ligand/no soluble receptor control wells, and thus the percent binding of the ligand to the cells. The software calculates the IC50 for each curve.” left out

[3] = target: T2, human IL-17A; assay: cell-based competition binding, FACS
Procedure: as §1

[4] = target: T2, human IL-17A; assay: Biacore, summary of Table 11
From the text: (§2) The protocol was optimized to capture receptor at a theoretical binding max. before injecting a concentration series of each ligand to observe association and dissociation. […] The surface was regenerated with 2×30 sec. injections of pH 1.75 glycine between cycles.

[5] = target: T1, human IL-17F; assay: Biacore, summary of Table 11
From the text: as §2

[6] = target: T3, murine IL-17A (mouse, UniProt Q62386 26-158); assay: Biacore, soluble receptor captured on chip; ND=no detectable binding
T3 construct: also called mIL-17A; mIL17A
T3 sequence: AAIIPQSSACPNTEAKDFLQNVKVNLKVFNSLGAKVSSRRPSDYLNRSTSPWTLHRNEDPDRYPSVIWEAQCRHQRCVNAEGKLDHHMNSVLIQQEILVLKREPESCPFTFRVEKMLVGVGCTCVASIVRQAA

[7] = target: T4, murine IL-17F (mouse, UniProt Q7TNI7 29-161); assay: as above
T4 construct: also called mIL-17F; mIL17F
T4 sequence: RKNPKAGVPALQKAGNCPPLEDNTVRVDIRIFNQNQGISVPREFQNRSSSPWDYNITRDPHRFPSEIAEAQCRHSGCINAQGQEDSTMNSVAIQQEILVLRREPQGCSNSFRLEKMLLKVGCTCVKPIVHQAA

[8] = target: T1, human IL-17F; assay: cell-based or functional assay
[9] = target: T2, human IL-17A; assay: Biacore, receptor captured by anti-human IgG Fc on CM5 chip, ligand as analyte
From the text: as §2

[10] = target: T1, human IL-17F; assay: as above
From the text: as §2

[11] = target: T2, human IL-17A; assay: Biacore, soluble receptor captured on chip, cytokine as analyte
[12] = target: T1, human IL-17F; assay: as above

B1: Variant 1342 (Fc fusion)
chain: ALPWLNVSADGDNVHLVLNVSEEQHFGLSLYWNQVQGPPKPRWHKNLTGPQIITLNHTDLVPCLCIQVWPLEPDSVRTNICPFREDPRAHQNLWQAARLRLLTLQSWLLDAPCSLPAEAALCWRAPGGDPCQPLVPPLSWENVTVDKVLEFPLLKGHPNLCVQVNSSEKLQLQECLWADSLGPLKDDVLLLETRGPQDNRSLCALEPSGCTSLPSKASTRAARLGEYLLQDLQSGQCLQLWDDDLGALWACPMDKYIHKGGGGSGGGGSGGGGSGGGGS[human IgG1 Fc with changes not shown]
notes: The entry may include the signal peptide
- IC50 [1]: 313 µg/mL
- IC50 [2]: 217 µg/mL

B2: Variant 1341 (Fc fusion)
chain: SPRLLDFPAPVCAQEGLSCRVKNSTCLDDSWIHPKNLTPSSPKNIYINLSVSSTQHGELVPVLHVEWTLQTDASILYLEGAELSVLQLNTNERLCVKFQFLSMLQHHRKRWRFSFSHFVVDPGQEYEVTVHHLPKPIPDGDPNHKSKIIFVPDCEDSKMKMTTSCVSSALPWLNVSADGDNVHLVLNVSEEQHFGLSLYWNQVQGPPKPRWHKNLTGPQIITLNHTDLVPCLCIQVWPLEPDSVRTNICPFREDPRAHQNLWQAARLRLLTLQSWLLDAPCSLPAEAALCWRAPGGDPCQPLVPPLSWENVTVDKVLEFPLLKGHPNLCVQVNSSEKLQLQECLWADSLGPLKDDVLLLETRGPQDNRSLCALEPSGCTSLPSKASTRAARLGEYLLQDLQSGQCLQLWDDDLGALWACPMDKYIHKGGGGSGGGGSGGGGSGGGGS[human IgG1 Fc with changes not shown]
notes: The entry may include the signal peptide; also called IL17RA/RC 1341; construct 1341
- IC50 [3]: 30 µg/mL
- IC50 [1]: 47 µg/mL

B3: Variant 1407 (Fc fusion)
chain: [about 300 residues not shown]ALPWLNVSADGDNVHLVLNVSEEQHFGLSLYWNQVQGPPKPRWHKNLTGPQIITLNHTDLVPCLCIQVWPLEPDSVRTNICPFREDPRAHQNLWQAARLRLLTLQSWLLDAPCSLPAEAALCWRAPGGDPCQPLVPPLSWENVTVDKVLEFPLLKGHPNLCVQVNSSEKLQLQECLWADSLGPLKDDVLLLETRGPQDNRSLCALEPSGCTSLPSKASTRAARLGEYLLQDLQSGQCLQLWDDDLGALWACPMDKYIHKEPKSSDKTHTCPPCPAPEAEGAPSVFLFPPKPKDTLMISRTPEVTCVVVDVSHEDPEVKFNWYVDGVEVHNAKTKPREEQYNSTYRVVSVLTVLHQDWLNGKEYKCKVSNKALPSSIEKTISKAKGQPREPQVYTLPPSRDELTKNQVSLTCLVKGFYPSDIAVEWESNGQPENNYKTTPPVLDSDGSFFLYSKLTVDKSRWQQGNVFSCSVMHEALHNHYTQKSLSLSPGK
notes: The entry may include the signal peptide; also called IL17RA/RC 1407
- IC50 [3]: 7 µg/mL and 9 µg/mL
- IC50 [1]: 33 µg/mL and 42 µg/mL

B4: Variant 1210 (Fc fusion)
chain: LERLVGPQDATHCSPGLSCRLWDSDILCLPGDIVPAPGPVLAPTHLQTELVLRCQKETDCDLCLRVAVHLAVHGHWEEPEDEEKFGGAADSGVEEPRNASLQAQVVLSFQAYPTARCVLLEVQVPAALVQFGQSVGSVVYDCFEAALGSEVRIWSYTQPRYEKELNHTQQLPALPWLNVSADGDNVHLVLNVSEEQHFGLSLYWNQVQGPPKPRWHKNLTGPQIITLNHTDLVPCLCIQVWPLEPDSVRTNICPFREDPRAHQNLWQAARLRLLTLQSWLLDAPCSLPAEAALCWRAPGGDPCQPLVPPLSWENVTVDKVLEFPLLKGHPNLCVQVNSSEKLQLQECLWADSLGPLKDDVLLLETRGPQDNRSLCALEPSGCTSLPSKASTRAARLGEYLLQDLQSGQCLQLWDDDLGALWACPMDKYIHKGGGGSGGGGSGGGGSGGGGS[human IgG1 Fc with changes not shown]
notes: The entry may include the signal peptide; also called IL17RC 1210; x1 splice variant IL17RC exons 1-6, exons 8-16
- IC50 [3]: 35 µg/mL and 47 µg/mL and 74 µg/mL
- IC50 [1]: 31 µg/mL and 61 µg/mL and 67 µg/mL

B5: IL-17RC-Tbx-C(Fc9), soluble human IL-17RCx1 Fc fusion protein (Fc fusion)
chain: LERLVGPQDATHCSPGLSCRLWDSDILCLPGDIVPAPGPVLAPTHLQTELVLRCQKETDCDLCLRVAVHLAVHGHWEEPEDEEKFGGAADSGVEEPRNASLQAQVVLSFQAYPTARCVLLEVQVPAALVQFGQSVGSVVYDCFEAALGSEVRIWSYTQPRYEKELNHTQQLPALPWLNVSADGDNVHLVLNVSEEQHFGLSLYWNQVQGPPKPRWHKNLTGPQIITLNHTDLVPCLCIQVWPLEPDSVRTNICPFREDPRAHQNLWQAARLRLLTLQSWLLDAPCSLPAEAALCWRAPGGDPCQPLVPPLSWENVTVDKVLEFPLLKGHPNLCVQVNSSEKLQLQECLWADSLGPLKDDVLLLETRGPQDNRSLCALEPSGCTSLPSKASTRAARLGEYLLQDLQSGQCLQLWDDDLGALWACPMDKYIHKGGSGGGTGSLVPRGS[human IgG1 Fc not shown]
notes: also called hIL-17RC-Ig; soluble hIL-17RC
- Kd [4]: ~0.4 nM
- Kd [5]: ~0.4 nM
- binding result [6]: no binding
- binding result [7]: no binding
- IC50, luciferase in hIL-17RCX4/NIH3T3/KZ142.8 cells, 1 ng/ml IL-17F [8]: 6 µg/mL
- Kd [9]: 0.469 nM and 0.352 nM
- koff [9]: 0.00049 s⁻¹ and 0.000438 s⁻¹
- kon [9]: 1.05e+06 M⁻¹ s⁻¹ and 1.24e+06 M⁻¹ s⁻¹
- Kd [10]: 0.435 nM and 0.346 nM
- koff [10]: 0.000431 s⁻¹ and 0.000384 s⁻¹
- kon [10]: 991000 M⁻¹ s⁻¹ and 1.11e+06 M⁻¹ s⁻¹
- Kd [11]: 0.469 nM and 0.352 nM
- Kd [12]: 0.435 nM and 0.346 nM

“And” between values parts separate entries of the source, which are not always exact repeats. Equal values may be shown once.
